# The list shows a part of the results. Repeats are few or missing, and single values can be far off.
# Tested on: A101D
# Assay: cell count relative to DMSO control; melanoma cells; higher = more viable cells
# Conditions: library dose: standard library concentration; 72 h
# 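Also: cells treated in 1,536-well plates, then fixed and DAPI-stained, with nuclei counted from automated high-throughput microscope images.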
row,SMILES,cell count
1,"NC(=O)c1ccc(N(C(N)=O)c2c(F)cccc2F)nc1-c1ccc(F)cc1F + CNC(=O)c1cc(Oc2ccc(NC(=O)Nc3ccc(Cl)c(C(F)(F)F)c3)cc2)ccn1 [sorafenib] (first compound 2 µM, partner dose 2 µM)",93.7%
2,"COc1cc2c(Oc3ccc4[nH]c(C)cc4c3F)ncnc2cc1OCCCN1CCCC1 [cediranib] + O=c1cc(-c2cccc3c2Sc2ccccc2S3)oc(N2CCOCC2)c1 [KU55933] (first compound 2 µM, partner dose 5 µM)",77.5%
3,"CCCCCCCCc1ccc(CCC(N)(CO)CO)cc1 [fingolimod] + Nc1ccn([C@@H]2O[C@H](CO)[C@@H](O)C2(F)F)c(=O)n1 [gemcitabine] (first compound 10 µM, partner dose 0.002 µM)",10.7%
4,"NC(=O)c1ccc(N(C(N)=O)c2c(F)cccc2F)nc1-c1ccc(F)cc1F + CCN(CC)CCNC(=O)c1c(C)[nH]c(/C=C2\C(=O)Nc3ccc(F)cc32)c1C [sunitinib] (first compound 2 µM, partner dose 2 µM)",67.9%
5,"CC(C)(C)c1cnc(CSc2cnc(NC(=O)C3CCNCC3)s2)o1 + Cc1cc(N2CCOCC2)cc2[nH]c(-c3c(NC[C@@H](O)c4cccc(Cl)c4)cc[nH]c3=O)nc12 [BMS536924] (first compound 0.05 µM, partner dose 1 µM)",87.8%
6,"Cc1ccc(NC(=O)c2cccc(N(C)C)c2)cc1NC(=O)c1ccc(O)cc1 + NC(=O)Nc1cc(-c2cccc(F)c2)sc1C(=O)N[C@H]1CCCNC1 [AZD7762] (first compound 10 µM, partner dose 0.1 µM)",55.4%
7,"NC(=O)c1ccc(N(C(N)=O)c2c(F)cccc2F)nc1-c1ccc(F)cc1F + NCC(=O)Nc1ccc(-n2nc(C(F)(F)F)cc2-c2ccc3c(ccc4ccccc43)c2)cc1 [OSU03012] (first compound 2 µM, partner dose 5 µM)",77.8%
8,"CCCCCCCCc1ccc(CCC(N)(CO)CO)cc1 [fingolimod] + NC1(c2ccc(-c3nc4ccn5c(=O)[nH]nc5c4cc3-c3ccccc3)cc2)CCC1 [MK2206] (first compound 10 µM, partner dose 2 µM)",11.6%
9,"CC(C)(C)c1cnc(CSc2cnc(NC(=O)C3CCNCC3)s2)o1 + NC(=O)Nc1cc(-c2cccc(F)c2)sc1C(=O)N[C@H]1CCCNC1 [AZD7762] (first compound 0.05 µM, partner dose 0.1 µM)",50.2%
10,"CC(C)(C)c1cnc(CSc2cnc(NC(=O)C3CCNCC3)s2)o1 + CN(NC(=O)CC(=O)NN(C)C(=S)c1ccccc1)C(=S)c1ccccc1 [STA4783] (first compound 0.05 µM, partner dose 0.03 µM)",41.5%
11,"NC(=O)c1ccc(N(C(N)=O)c2c(F)cccc2F)nc1-c1ccc(F)cc1F + NC(=O)Nc1cc(-c2cccc(F)c2)sc1C(=O)N[C@H]1CCCNC1 [AZD7762] (first compound 2 µM, partner dose 0.1 µM)",59.9%
12,"CCCCCCCCc1ccc(CCC(N)(CO)CO)cc1 [fingolimod] + COc1cc(N2CCC(N3CCN(C)CC3)CC2)ccc1Nc1ncc(Cl)c(Nc2ccccc2S(=O)(=O)C(C)C)n1 [NVP-TAE684] (first compound 10 µM, partner dose 0.4 µM)",4.04%
13,"NC(=O)c1ccc(N(C(N)=O)c2c(F)cccc2F)nc1-c1ccc(F)cc1F + CO[C@@H]1[C@H](N(C)C(=O)c2ccccc2)C[C@H]2O[C@]1(C)n1c3ccccc3c3c4c(c5c6ccccc6n2c5c31)C(=O)NC4 [Midostaurin] (first compound 2 µM, partner dose 0.4 µM)",67%
14,"NC(=O)c1ccc(N(C(N)=O)c2c(F)cccc2F)nc1-c1ccc(F)cc1F + C=C(c1ccc(C(=O)O)cc1)c1cc2c(cc1C)C(C)(C)CCC2(C)C [Bexarotene] (first compound 2 µM, partner dose 10 µM)",115%
15,"CCCCCCCCc1ccc(CCC(N)(CO)CO)cc1 [fingolimod] + CS(=O)(=O)CCNCc1ccc(-c2ccc3ncnc(Nc4ccc(OCc5cccc(F)c5)c(Cl)c4)c3c2)o1 [lapatinib] (first compound 10 µM, partner dose 4 µM)",6.13%
16,"CCCCCCCCc1ccc(CCC(N)(CO)CO)cc1 [fingolimod] + CC1(C)NC(=O)N(c2ccc([N+](=O)[O-])c(C(F)(F)F)c2)C1=O [nilutamide] (first compound 10 µM, partner dose 5 µM)",4.69%
17,"CCCCCCCCc1ccc(CCC(N)(CO)CO)cc1 [fingolimod] + C[C@]1(c2nc3c(C(N)=O)cccc3[nH]2)CCCN1 [Veliparib] (first compound 10 µM, partner dose 7 µM)",17.2%

row,SMILES,cell count
1,"CCCCCCCCc1ccc(CCC(N)(CO)CO)cc1 [fingolimod] + CN(c1ncccc1CNc1nc(Nc2ccc3c(c2)CC(=O)N3)ncc1C(F)(F)F)S(C)(=O)=O [PF562271] (first compound 10 µM, partner dose 0.4 µM)",5.42%
2,"CC(C)(C)c1cnc(CSc2cnc(NC(=O)C3CCNCC3)s2)o1 + Cn1cncc1[C@@](N)(c1ccc(Cl)cc1)c1ccc2c(c1)c(-c1cccc(Cl)c1)cc(=O)n2C [tipifarnib] (first compound 0.05 µM, partner dose 0.05 µM)",50.1%
3,"CCCCCCCCc1ccc(CCC(N)(CO)CO)cc1 [fingolimod] + NCC(=O)Nc1ccc(-n2nc(C(F)(F)F)cc2-c2ccc3c(ccc4ccccc43)c2)cc1 [OSU03012] (first compound 10 µM, partner dose 5 µM)",3.71%
4,"CCCCCCCCc1ccc(CCC(N)(CO)CO)cc1 [fingolimod] + Cc1cc(N2CCOCC2)cc2[nH]c(-c3c(NC[C@@H](O)c4cccc(Cl)c4)cc[nH]c3=O)nc12 [BMS536924] (first compound 10 µM, partner dose 1 µM)",4.68%
5,"NC(=O)c1ccc(N(C(N)=O)c2c(F)cccc2F)nc1-c1ccc(F)cc1F + CC(C)C[C@H](NC(=O)[C@H](Cc1ccccc1)NC(=O)c1cnccn1)B(O)O [Bortezomib] (first compound 2 µM, partner dose 0.005 µM)",11.1%
6,"Cc1ccc(NC(=O)c2cccc(N(C)C)c2)cc1NC(=O)c1ccc(O)cc1 + Oc1nc(-c2ccc(C(F)(F)F)cc2)nc2c1CSCC2 [XAV939] (first compound 10 µM, partner dose 10 µM)",99.4%
7,"CCCCCCCCc1ccc(CCC(N)(CO)CO)cc1 [fingolimod] + C[C@@H](Oc1cc(-c2cnn(C3CCNCC3)c2)cnc1N)c1c(Cl)ccc(F)c1Cl [Crizotinib] (first compound 10 µM, partner dose 1 µM)",5.04%
8,"CCCCCCCCc1ccc(CCC(N)(CO)CO)cc1 [fingolimod] + O=C(O)c1ccc2c(c1)nc(Nc1cccc(Cl)c1)c1ccncc12 [CX4945] (first compound 10 µM, partner dose 2 µM)",6.8%
9,"NC(=O)c1ccc(N(C(N)=O)c2c(F)cccc2F)nc1-c1ccc(F)cc1F + COc1ccc(Cl)c(Nc2nc3ccccc3nc2NS(=O)(=O)c2cccc(NC(=O)C(C)(C)N)c2)c1 [XL147] (first compound 2 µM, partner dose 4 µM)",98.7%
10,"CC(C)(C)c1cnc(CSc2cnc(NC(=O)C3CCNCC3)s2)o1 + O=C(Nc1cccc(Cl)c1)Nc1ncc(CCNc2ncnc3ccsc23)s1 [SNS314] (first compound 0.05 µM, partner dose 0.004 µM)",90.2%
11,"CCCCCCCCc1ccc(CCC(N)(CO)CO)cc1 [fingolimod] + NC(=O)Nc1cc(-c2cccc(F)c2)sc1C(=O)N[C@H]1CCCNC1 [AZD7762] (first compound 10 µM, partner dose 0.1 µM)",5.27%
12,"NC(=O)c1ccc(N(C(N)=O)c2c(F)cccc2F)nc1-c1ccc(F)cc1F + Cc1ccc(NC(=O)c2cccc(N(C)C)c2)cc1NC(=O)c1ccc(O)cc1 [ZM336372] (first compound 2 µM, partner dose 10 µM)",82.5%
13,"NC(=O)c1ccc(N(C(N)=O)c2c(F)cccc2F)nc1-c1ccc(F)cc1F + C=CCn1c(=O)c2cnc(Nc3ccc(N4CCN(C)CC4)cc3)nc2n1-c1cccc(C(C)(C)O)n1 [MK1775] (first compound 2 µM, partner dose 0.1 µM)",56.8%
14,"NC(=O)c1ccc(N(C(N)=O)c2c(F)cccc2F)nc1-c1ccc(F)cc1F + Clc1ccc(Nc2nnc(Cc3ccncc3)c3ccccc23)cc1 [vatalanib] (first compound 2 µM, partner dose 10 µM)",91.3%
15,"CCCCCCCCc1ccc(CCC(N)(CO)CO)cc1 [fingolimod] + CO[C@@H]1[C@H](N(C)C(=O)c2ccccc2)C[C@H]2O[C@]1(C)n1c3ccccc3c3c4c(c5c6ccccc6n2c5c31)C(=O)NC4 [Midostaurin] (first compound 10 µM, partner dose 0.4 µM)",3.07%
16,"CCCCCCCCc1ccc(CCC(N)(CO)CO)cc1 [fingolimod] + COc1cc2c(Oc3ccc4[nH]c(C)cc4c3F)ncnc2cc1OCCCN1CCCC1 [cediranib] (first compound 10 µM, partner dose 2 µM)",1.33%

# Source: the supplement of paper PMC4604168 (melanoma cell lines)
